# Where “and” joins values, the source holds several entries; their conditions need not be identical. Equal values may be shown once. About 5,000 (1.2%) of roughly 410,000 compounds were called active. The shares of active, inactive and inconclusive entries below differ from those in the screen. The call rests on the fitted dose curve; in most records, active means well fitted inhibition curve with a large enough effect; inconclusive means small, poorly fitted or top-dose-only effect; inactive means no such curve, though single readings can be large or run the other way. A potency beside an inconclusive call is a rough fit, not a confirmed value.
# Assay: qHTS for Inhibitors of TGF-b; further: nearly all actives have a fitted effect of over 65% in size
# Conditions: HepG2 CAGA-GFP TGF-b/SMAD3 reporter, GFP fluorescence, 18 h, TGF-beta stimulated, 500 pg/mL final; series mostly up to 46.1 µM; activity, negative = inhibition: at the top concentration
# Method in brief: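 Read-out: total well GFP (ex488/em500-530) summed from mean per-cell fluorescence. Cells: HEPG2 CAGA-GFP, 1% FBS DMEM, 18 h at 37 degrees C with 500 pg/mL final TGF-beta. Unstimulated wells served as the full-inhibition control; stimulated DMSO wells = 0%.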
# On the % scale 0 is the no-effect control and ±100 the full control effect; potency means the concentration at half of the fitted maximal effect; tags describe the fitted curve by direction and shape.
Compound,Potency,"activity, negative = inhibition"
COc1ccc(N2CCN(C(=O)C3CCN(S(=O)(=O)c4cccs4)CC3)CC2)cc1,"inconclusive: 0.708 µM [inhibitor, full curve, poor fit]",
CCOC(=O)c1ccccc1NC(=O)CSc1nc2cn(CC)nc2c(=O)n1Cc1ccc(Cl)cc1,,inactive: 0%
CC1(C(=O)NS(=O)(=O)C2CC2)CCN(C(=O)C2(c3ccc(Cl)cc3)CCCC2)C1 (stereo unspecified),,inactive: -2.68%
CCOC(=O)C(NC(=O)CCl)(Nc1sc(C)c(CC)c1C#N)C(F)(F)F (stereo unspecified),"inconclusive: 11.2 µM [inhibitor, single point]",
O=C1c2ccccc2C(=O)N1CCC#Cc1ccc2cc(C3(O)CCCCC3)oc(=O)c2c1,"inconclusive: 35.5 µM [inhibitor, single point]",
CC(OC(=O)c1cnccn1)C(=O)Nc1nc(-c2cccc([N+](=O)[O-])c2)cs1 (stereo unspecified),,inactive: -9.3%
CCCN(CC(=O)Nc1ccccc1C)C(=O)COC(=O)CSc1ccc([N+](=O)[O-])cc1,,inactive: -2.63%
CCN(CC)S(=O)(=O)c1cccc(C(=O)N[C@H](C(=O)NCc2ccccc2F)C(C)C)c1,,inactive: -1.92%
CS(=O)(=O)c1ccc(Nc2nc(C(N)c3ccccc3Cl)cs2)cc1 (stereo unspecified),"inconclusive: 15.8 µM [inhibitor, partial curve, poor fit]",
COC(=O)c1ccc(NC(=O)c2nc(SCc3ccccc3F)ncc2Cl)cc1,,inactive: -0.623%
CC(Cc1ccccn1)NC(=O)c1ccc(OC2CCN(CCc3ccccc3)CC2)cc1 (stereo unspecified),,inactive: 14.7%
Cc1ccc(C(=O)Nn2cnc3scc(-c4cccs4)c3c2=O)c(O)c1,"inconclusive: 3.16 µM [inhibitor, partial curve, poor fit]",
CC1CCCN(CCCNC(=O)c2ccc3c(c2)N(Cc2ccccc2F)C(=O)c2ccccc2S3(=O)=O)C1 (stereo unspecified),"inconclusive: 25.1 µM [inhibitor, single point] and inconclusive: 12.6 µM [inhibitor, partial curve, poor fit]",
O=C(/C=C/c1ccccc1)c1ccc2c(c1)OCO2,"inconclusive: 35.5 µM [inhibitor, single point]",
Cc1ccc(OCCC(=O)Nc2ccc(F)c(F)c2)cc1,"inconclusive: 3.16 µM [inhibitor, single point]",
Oc1c(CN2CCCCC2)cc(Br)c2cccnc12,active: 2.82 µM,
Cc1cccc(N2CCN(C(=O)c3ccc(CS(=O)Cc4cccc(Cl)c4)o3)CC2)c1C (stereo unspecified),"inconclusive: 22.4 µM [inhibitor, single point]",
CCOC(=O)C1=C(COC(=O)CNS(=O)(=O)c2ccc(C)cc2)NC(=O)NC1C (stereo unspecified),,inactive: 25.2%
CCS(=O)(=O)c1nnnn1-c1ccccc1S(C)(=O)=O,active: 11.2 µM,
Cc1ccc(/C=C/c2onc(C)c2S(=O)(=O)N2CCC(C(=O)Nc3ccc(C)c(N(C)C)c3)CC2)cc1,"inconclusive: 3.98 µM [inhibitor, full curve, poor fit]",
O=C(NCc1ccccn1)C1CN(S(=O)(=O)c2ccccc2)CCN1S(=O)(=O)c1ccccc1 (stereo unspecified),,inactive: 1.45%
Cc1ccc(CNC(=O)CCCCCn2c(=O)[nH]c3ccccc3c2=O)cc1,"inconclusive: 6.31 µM [inhibitor, single point]",

Compound,Potency,"activity, negative = inhibition"
Fc1cc(Cl)cc2ccc(-c3ccccc3)nc12,"inconclusive: 11.2 µM [inhibitor, partial curve, poor fit]",
CC(/C=N/NC(=O)c1ccco1)=C\c1ccccc1,,inactive: 25.5%
CC(=O)c1cc2c(cc1N/C(=N/S(=O)(=O)c1ccc(Cl)cc1)c1ccc(F)cc1)OCO2,,inactive: 2.02%
CC1CN(C(=O)CCc2ccccc2)C(C)CN1C(=O)CCc1ccccc1 (stereo unspecified),,inactive: 2.93%
CCn1nc(C(=O)Nc2nc3ccccc3[nH]2)c2ccccc2c1=O,"inconclusive: 0.316 µM [inhibitor, partial curve, poor fit]",
Cc1cc(-c2ccc(C)c(S(=O)(=O)N3CCN(c4ccccn4)CC3)c2)on1,"inconclusive: 35.5 µM [inhibitor, single point]",
C/C(=N\NC(=O)c1ccccc1O)c1ccc(Br)s1,"inconclusive: 17.8 µM [inhibitor, single point]",
CNC(=O)CCn1nc(-c2ccccc2)c2ccccc2c1=O,"inconclusive: 5.62 µM [inhibitor, single point]",
CCCCCCC1CC(CC(=O)Nc2ccc([N+](=O)[O-])cc2)C(=O)O1 (stereo unspecified),"inconclusive: 15.8 µM [inhibitor, single point]",
O=C(Nc1ccc(NC(=O)C2CC2)nc1)c1ccccc1F,"inconclusive: 14.1 µM [inhibitor, partial curve, poor fit]",
N/C(=N/O)c1ccccc1N1CCC(Cc2ccccc2)CC1,"inconclusive: 22.4 µM [inhibitor, single point]",
CC1CC(C)CN(S(=O)(=O)c2ccc(NN)nc2)C1 (stereo unspecified),"inconclusive: 20 µM [inhibitor, single point]",
COc1ccccc1NC(=O)c1cnc(SCC(=O)NCC2CCCO2)n(C)c1=O (stereo unspecified),"inconclusive: 11.2 µM [inhibitor, partial curve]",
O=C(OCc1cn([C@H]2CN(CC3CCCCC3)[C@@H](c3ccccc3)C[C@@H]2O)nn1)c1ccccc1,,inactive: -1.83%
Cc1cccc(N/C=C(\[N+](=O)[O-])S(=O)(=O)c2ccccc2)c1,"inconclusive: 7.94 µM [inhibitor, partial curve, poor fit]",
CSc1nsc(SC)c1NC(=O)OCC1CCCO1 (stereo unspecified),"inconclusive: 6.31 µM [inhibitor, single point]",
COc1cc(N(CCCn2cnc3c(SC)ncnc32)CCCn2cnc3c(SC)ncnc32)cc(OC)c1OC,"inconclusive: 5.62 µM [inhibitor, single point]",
CCC(Cc1ccccc1)n1c(=S)[nH]c2ccccc2c1=O (stereo unspecified),"inconclusive: 2.51 µM [inhibitor, partial curve, poor fit]",
CC(C)(C)c1cc(C(=O)NNc2cc(C(F)(F)F)ccc2Cl)n(Cc2ccccc2)n1,active: 11.2 µM,
Cc1ccc(-c2noc(CNC(=O)c3ccc(Br)o3)n2)cc1,"inconclusive: 10 µM [inhibitor, partial curve]",
NC(=O)SCC(=O)Nc1ccc(Cl)cc1,"inconclusive: 14.1 µM [inhibitor, single point]",
Cc1ccc(NC(=O)Cn2c(=O)oc3cc(S(=O)(=O)N4CCC(C)CC4)ccc32)cc1C,"inconclusive: 35.5 µM [inhibitor, single point]",

Compound,Potency,"activity, negative = inhibition"
Cc1ccc(NS(=O)(=O)c2c(C)[nH]c(=O)[nH]c2=O)c(C)c1,inactive,
O=C(CSc1ncn[nH]1)N1N=C(c2ccc(Cl)cc2)CC1c1ccco1 (stereo unspecified),"inconclusive: 14.1 µM [inhibitor, single point]",
COC(CNC(=O)c1ccc2c3c(onc13)-c1ccccc1C2=O)OC,active: 11.2 µM,
Cc1ccccc1CN(C)C(C)C(=O)NCc1ccccc1 (stereo unspecified),"inconclusive: 6.31 µM [inhibitor, single point]",
COCC(=O)Oc1cc(-c2ccc(C)cc2C)c(OC(=O)COC)c(-c2ccc(C)cc2C)c1,"inconclusive: 35.5 µM [inhibitor, single point]",
OC(CCc1ccncc1)c1ccccc1 (stereo unspecified),"inconclusive: 1.26 µM [inhibitor, partial curve]",
CCCCNC(=O)C1(C)CCC(=O)N1C1CCN(Cc2ccccc2)CC1 (stereo unspecified),,inactive: -1.35%
CNS(=O)(=O)c1ccc(CCC(=O)N2CCN(c3ccccc3OC)CC2)cc1,"inconclusive: 25.1 µM [inhibitor, single point]",
COc1cccc(Nc2sc(C(=O)c3ccc(F)cc3)c(N)c2C(=O)NCc2ccc(Cl)cc2)c1,"inconclusive: 35.5 µM [inhibitor, partial curve, poor fit]",
CCN(CCCNC(=O)CN1N=C(c2ccc(OC)cc2)CCC1=O)c1cccc(C)c1,"inconclusive: 14.1 µM [inhibitor, partial curve]",
N#Cc1c(N2CCOCC2)nsc1-c1ccccc1,,inactive: 13.8%
Cc1ccc(C)c(Cn2c(-c3cccs3)nc3ccccc32)c1,"inconclusive: 35.5 µM [inhibitor, single point]",
CCOc1ccc(-c2ccc(NS(=O)(=O)c3cc([N+](=O)[O-])c(C)c([N+](=O)[O-])c3)cc2)nn1,"inconclusive: 28.2 µM [inhibitor, single point]",
CC(C)N(C(=O)CSc1nnc(-c2cc3ccccc3cc2O)n1Cc1ccco1)C(C)C,"inconclusive: 22.4 µM [inhibitor, single point]",
CC(C)Cc1ccc(S(=O)(=O)Nc2cc3c(cc2N2CCOCC2)n(C)c(=O)c(=O)n3C)cc1,,inactive: -20.3%
Cc1ccc(C)c(S(=O)(=O)N2CCN(C(=O)c3ccccc3Cc3ccccc3)CC2)c1,"inconclusive: 28.2 µM [inhibitor, single point]",
CC1CCCC=CC2CC(OC(=O)CN(C)C)CC2C(O)C=CC(=O)O1 (stereo unspecified),"inconclusive: 0.112 µM [inhibitor, full curve, poor fit]",
O=C1c2ccccc2C(=O)N1CCc1c(-c2[nH]c3ccccc3c2CCN2C(=O)c3ccccc3C2=O)[nH]c2ccccc12,,inactive: -2.2%
CC(C)n1cc(CN2CCC(C(=O)Nc3ccc(Oc4ccccc4F)cc3)CC2)cn1,"inconclusive: 25.1 µM [inhibitor, single point]",
Cc1ccccc1C(=O)NC1CCN(CC(=O)NCc2cccs2)CC1,,inactive: -10.6%
Cc1cccc(NC(=O)c2cccc(N3C(=O)C4C5CCC(C5)C4C3=O)c2)c1C (stereo unspecified),,inactive: 0.313%
CC(C)(C)C(=O)C(Cl)C(=O)Nc1ccccc1 (stereo unspecified),"inconclusive: 20 µM [inhibitor, single point]",
